# Reference: publication PMC12820563, “FoxP3 forms a head-to-head dimer in vivo and stabilizes its multimerization on adjacent microsatellites”
# The other results are listed elsewhere or left out.
# Target: T1, MBP-FoxP1dN (Mus musculus, UniProt P58462 326-579)
# T1 sequence: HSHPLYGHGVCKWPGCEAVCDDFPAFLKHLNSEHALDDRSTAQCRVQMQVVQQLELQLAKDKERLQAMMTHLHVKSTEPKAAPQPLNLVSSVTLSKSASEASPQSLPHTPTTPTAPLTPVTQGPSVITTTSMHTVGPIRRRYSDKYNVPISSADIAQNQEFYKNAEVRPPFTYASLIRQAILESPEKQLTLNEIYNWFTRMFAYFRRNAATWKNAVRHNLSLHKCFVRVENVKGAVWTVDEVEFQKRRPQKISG
# Experiment: PD-seq (MBP pull-down with sequencing); 20 mM Tris-HCl pH 7.5, 100 mM NaCl, 1.5 mM MgCl2, 0.4 uM protein, 0.1 uM dsDNA library, 30 min, room temperature, amylose pull-down; high values mean tight binding
# Conditions: protein: recombinant; tags: His6-MBP; chain copies: 2; dsDNA, one strand shown
# Outline: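 The N-terminus-lacking fragment of mouse FoxP3 or FoxP1 carried a His6-MBP tag and was expressed in E. coli. At 0.4 µM it was incubated with 0.1 µM Klenow-filled degenerate double-stranded DNA library for 30 min at room temperature in Tris pH 7.5 buffer with NaCl and MgCl2, and complexes were caught on amylose resin, washed three times, released with proteinase K, PCR-barcoded and Illumina-sequenced. Binding is reads-per-million enrichment of pull-down over input with replicates pooled.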
row,Sequence,binding signal
1,GATGATTGTTCTCCCAGCTGATGAATTTAGCTTTTCGAGTAAACAAATTTTCCTAATCTTTCTGTTCAAGCGCCATCTAC,1.06 RPM ratio (pull-down/input)
2,GATGATTGTTCTCCCAGCTGATGAATTTGTAACGTCGAGTAAACAAATTTTCCTAATCTTTCTGTTCAAGCGCCATCTAC,1.18 RPM ratio (pull-down/input)
3,GATGATTGTTCTCCCAGCTGATGAATTCTGGTAGTCGAGTAAACAAATTTTCCTAATCTTTCTGTTCAAGCGCCATCTAC,0.945 RPM ratio (pull-down/input)
4,GATGATTGTTCTCCCAGCTGATGAATTGAAAATTTCGAGTAAACAAATTTTCCTAATCTTTCTGTTCAAGCGCCATCTAC,0.888 RPM ratio (pull-down/input)
5,GATGATTGTTCTCCCAGCTGATGAATTGACTTGGTCGAGTAAACAAATTTTCCTAATCTTTCTGTTCAAGCGCCATCTAC,0.938 RPM ratio (pull-down/input)
6,GATGATTGTTCTCCCAGCTGATGAATTGGCCCACTCGAGTAAACAAATTTTCCTAATCTTTCTGTTCAAGCGCCATCTAC,0.8 RPM ratio (pull-down/input)
7,GATGATTGTTCTCCCAGCTGATGAATTTCTTGCATCGAGTAAACAAATTTTCCTAATCTTTCTGTTCAAGCGCCATCTAC,1.27 RPM ratio (pull-down/input)
8,GATGATTGTTCTCCCAGCTGATGAATTGGAGTTTTCGAGTAAACAAATTTTCCTAATCTTTCTGTTCAAGCGCCATCTAC,1.1 RPM ratio (pull-down/input)
9,GATGATTGTTCTCCCAGCTGATGAATTCAGCCAGTCGAGTAAACAAATTTTCCTAATCTTTCTGTTCAAGCGCCATCTAC,0.768 RPM ratio (pull-down/input)
10,GATGATTGTTCTCCCAGCTGATGAATTGTGCTAATCGAGTAAACAAATTTTCCTAATCTTTCTGTTCAAGCGCCATCTAC,1.16 RPM ratio (pull-down/input)
11,GATGATTGTTCTCCCAGCTGATGAATTACCTCTCTCGAGTAAACAAATTTTCCTAATCTTTCTGTTCAAGCGCCATCTAC,0.905 RPM ratio (pull-down/input)
12,GATGATTGTTCTCCCAGCTGATGAATTAGTTACTTCGAGTAAACAAATTTTCCTAATCTTTCTGTTCAAGCGCCATCTAC,1.07 RPM ratio (pull-down/input)
13,GATGATTGTTCTCCCAGCTGATGAATTCGAGTGCTCGAGTAAACAAATTTTCCTAATCTTTCTGTTCAAGCGCCATCTAC,0.859 RPM ratio (pull-down/input)
14,GATGATTGTTCTCCCAGCTGATGAATTCTCGCAGTCGAGTAAACAAATTTTCCTAATCTTTCTGTTCAAGCGCCATCTAC,0.829 RPM ratio (pull-down/input)
15,GATGATTGTTCTCCCAGCTGATGAATTTAGGCTTTCGAGTAAACAAATTTTCCTAATCTTTCTGTTCAAGCGCCATCTAC,1.1 RPM ratio (pull-down/input)
16,GATGATTGTTCTCCCAGCTGATGAATTAGACTAATCGAGTAAACAAATTTTCCTAATCTTTCTGTTCAAGCGCCATCTAC,1.08 RPM ratio (pull-down/input)
17,GATGATTGTTCTCCCAGCTGATGAATTCTCCAAGTCGAGTAAACAAATTTTCCTAATCTTTCTGTTCAAGCGCCATCTAC,0.773 RPM ratio (pull-down/input)
18,GATGATTGTTCTCCCAGCTGATGAATTTTTAGTATCGAGTAAACAAATTTTCCTAATCTTTCTGTTCAAGCGCCATCTAC,1.02 RPM ratio (pull-down/input)
19,GATGATTGTTCTCCCAGCTGATGAATTGCGCCCTTCGAGTAAACAAATTTTCCTAATCTTTCTGTTCAAGCGCCATCTAC,1.03 RPM ratio (pull-down/input)
20,GATGATTGTTCTCCCAGCTGATGAATTATATCAATCGAGTAAACAAATTTTCCTAATCTTTCTGTTCAAGCGCCATCTAC,1.16 RPM ratio (pull-down/input)

row,Sequence,binding signal
1,GATGATTGTTCTCCCAGCTGATGAATTTGCGGTATCGAGTAAACAAATTTTCCTAATCTTTCTGTTCAAGCGCCATCTAC,1 RPM ratio (pull-down/input)
2,GATGATTGTTCTCCCAGCTGATGAATTCGTAAAATCGAGTAAACAAATTTTCCTAATCTTTCTGTTCAAGCGCCATCTAC,1.04 RPM ratio (pull-down/input)
3,GATGATTGTTCTCCCAGCTGATGAATTCACAGACTCGAGTAAACAAATTTTCCTAATCTTTCTGTTCAAGCGCCATCTAC,0.819 RPM ratio (pull-down/input)
4,GATGATTGTTCTCCCAGCTGATGAATTTCGCGTGTCGAGTAAACAAATTTTCCTAATCTTTCTGTTCAAGCGCCATCTAC,0.956 RPM ratio (pull-down/input)
5,GATGATTGTTCTCCCAGCTGATGAATTTTAGCCCTCGAGTAAACAAATTTTCCTAATCTTTCTGTTCAAGCGCCATCTAC,0.826 RPM ratio (pull-down/input)
6,GATGATTGTTCTCCCAGCTGATGAATTAGTCAGATCGAGTAAACAAATTTTCCTAATCTTTCTGTTCAAGCGCCATCTAC,0.974 RPM ratio (pull-down/input)
7,GATGATTGTTCTCCCAGCTGATGAATTTCATTGTTCGAGTAAACAAATTTTCCTAATCTTTCTGTTCAAGCGCCATCTAC,1 RPM ratio (pull-down/input)
8,GATGATTGTTCTCCCAGCTGATGAATTCAATCCTTCGAGTAAACAAATTTTCCTAATCTTTCTGTTCAAGCGCCATCTAC,0.908 RPM ratio (pull-down/input)
9,GATGATTGTTCTCCCAGCTGATGAATTATCCACATCGAGTAAACAAATTTTCCTAATCTTTCTGTTCAAGCGCCATCTAC,1.05 RPM ratio (pull-down/input)
10,GATGATTGTTCTCCCAGCTGATGAATTGCCCTAGTCGAGTAAACAAATTTTCCTAATCTTTCTGTTCAAGCGCCATCTAC,0.836 RPM ratio (pull-down/input)
11,GATGATTGTTCTCCCAGCTGATGAATTTTGAGCCTCGAGTAAACAAATTTTCCTAATCTTTCTGTTCAAGCGCCATCTAC,0.819 RPM ratio (pull-down/input)
12,GATGATTGTTCTCCCAGCTGATGAATTGCAATATTCGAGTAAACAAATTTTCCTAATCTTTCTGTTCAAGCGCCATCTAC,1.56 RPM ratio (pull-down/input)
13,GATGATTGTTCTCCCAGCTGATGAATTGATAGCCTCGAGTAAACAAATTTTCCTAATCTTTCTGTTCAAGCGCCATCTAC,0.916 RPM ratio (pull-down/input)
14,GATGATTGTTCTCCCAGCTGATGAATTAGCACAATCGAGTAAACAAATTTTCCTAATCTTTCTGTTCAAGCGCCATCTAC,1.33 RPM ratio (pull-down/input)
15,GATGATTGTTCTCCCAGCTGATGAATTCTTGTCCTCGAGTAAACAAATTTTCCTAATCTTTCTGTTCAAGCGCCATCTAC,0.882 RPM ratio (pull-down/input)
16,GATGATTGTTCTCCCAGCTGATGAATTTCTTAACTCGAGTAAACAAATTTTCCTAATCTTTCTGTTCAAGCGCCATCTAC,0.949 RPM ratio (pull-down/input)
17,GATGATTGTTCTCCCAGCTGATGAATTCGCCGGCTCGAGTAAACAAATTTTCCTAATCTTTCTGTTCAAGCGCCATCTAC,0.748 RPM ratio (pull-down/input)
18,GATGATTGTTCTCCCAGCTGATGAATTGGCTGCATCGAGTAAACAAATTTTCCTAATCTTTCTGTTCAAGCGCCATCTAC,1.07 RPM ratio (pull-down/input)
19,GATGATTGTTCTCCCAGCTGATGAATTACTCTCATCGAGTAAACAAATTTTCCTAATCTTTCTGTTCAAGCGCCATCTAC,1.03 RPM ratio (pull-down/input)
20,GATGATTGTTCTCCCAGCTGATGAATTCTCATTGTCGAGTAAACAAATTTTCCTAATCTTTCTGTTCAAGCGCCATCTAC,1.01 RPM ratio (pull-down/input)
